Laboratory results as given in the supplement of paper PMC11417369.
Some of the results follow.

Tested on: PfAP2-HC AP2 domain (GST-tagged)
Test: gcPBM binding intensity (ln(normalized median fluorescence intensity)); higher = stronger DNA binding
Summary of the method: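 In this array assay, P. falciparum DNA-binding domains with a GST tag, expressed in E. coli, were applied for 1 h to primer-extended double-stranded 36-bp intergenic genomic probes and negative controls on an Agilent 4 × 180k array. Bound protein was visualised with Alexa488 anti-GST antibody at 488 nm. Binding intensity is the highest Masliner-normalised natural-log median intensity across replicate spots of either probe orientation.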

| Sequence | gcPBM binding intensity (ln) |
| --- | --- |
| ACATTATATTTGGACTGTACTAATATATTGTTATAT [XGTACX_site5573] | 9.65 |
| TATACATATATATATTGTACATATTATATATATATA [XGTACX_site3286] | 9.59 |
| ATATATATATATATATGTACATATTGTATCTTATAC [XGTACX_site5466] | 9.69 |
| TATCTTTTTATTTTTTATTTTTTTTTTATAATTTAC [XGTACX_negctrl_site414] | 9.56 |
| TCATTGAAAATTGTTGCACACATAATAATTAAATAT [CACACA_site8554] | 9.71 |
| ACACATATGTCTTCATGTACATAATATATAAATCTT [XGTACX_site3438] | 9.68 |
| CATAAATCAGCCATAACACACATACATATATACATA [CACACA_site8025] | 10 |
| TCTTGTTTATCAACAGCACACACAACAACAACAACA [CACACA_site8046] | 9.99 |
| TATATATATACAGTTGCATGTTGTGTTTAAAATTTT [TGCATGCA_site816] | 9.85 |
| TGTTAAAAAATGGATGCACACATTAAATAAAAAGTA [CACACA_site1660] | 9.89 |
| TAAAGGTAGATATATTGTACATACACACCTATATAA [XGTACX_site6865] | 9.66 |
| TTATATTTAGTATATGCACACTTTATGTTTGTTATT [CACACA_site5163] | 9.91 |
| TATAAATACGAACACACACACCTTATAATTACTACT [CACACA_site7827] | 10.4 |
| AAGAAAGGTTAAACATGTACATAAATATTTTACATA [XGTACX_site5024] | 9.64 |
| AAAAACCATTGGCACACACACATAATATATAATATA [CACACA_site4903] | 11.4 |
| CTTTAAACCCTGAACACACACAAATACAGACAAAAA [CACACA_site247] | 10.1 |
| GTATTTTAATATAAATGTACATAAATGTTATATATA [XGTACX_site3475] | 9.67 |
| AATATTGTATATAATAAACACACAATATTAAAAATA [CACACA_site8262] | 10.1 |
| TACACAAGAAAATTCACACACACACGGATATTTATA [CACACA_site7765] | 10.6 |
| GTATCGAAGTAAATACGTACTTAAATATGTTTAAAA [XGTACX_site1353] | 9.48 |
| ACGTACTGCCCTAAAGTGCATATATAATATAAACGA [GTGCAC_site9911] | 9.52 |
| ATATGACTTAAATATGTGCGCATTTTTTTTTTTTTT | 9.83 |

| Sequence | gcPBM binding intensity (ln) |
| --- | --- |
| CATATATAAATCATGTGTACGTATTGAGTATCTACT [XGTACX_site6278] | 9.65 |
| AGGATATATAATTAAGTGCATTAATTCAAAATAAAA [GTGCAC_site9702] | 9.67 |
| TTATTATTTTATAACACACACATATATATTATATCT [CACACA_site1434] | 9.98 |
| ATAAGATATGTATATACACACATTTATTTACCTATA [CACACA_site7521] | 9.89 |
| TAAACAAAATATATATGTACATATATATATATATAT [XGTACX_site6502] | 9.66 |
| TTTTATTTGACAAGCACACACTTAAATATATTTATA [CACACA_site7557] | 9.85 |
| AAAACATTTTCAAACTGTACACATAGAACTATGCAT [XGTACX_site4087] | 9.62 |
| ACATAAGAAGTTATATGTACATATATTTTTTAAATT [XGTACX_site8078] | 9.69 |
| ATCTAGCCATTTTTTAGTACACATAAATAAAAAAAA [XGTACX_site1257] | 9.41 |
| CATTAATAACAAAGTTGTACAAGATAATATTATATG [XGTACX_site6832] | 9.87 |
| TATATTTTAGTTAATGCATGTGTGCATCCATTTAAA [TGCATGCA_site887] | 9.69 |
| ATACATATATATATATGTACACACATTAATAAAAAA [XGTACX_site6874] | 9.89 |
| TATAAATAAATTTATACACACACACCCATATATATA [CACACA_site8183] | 10.3 |
| TACCAAAATAGACACACACACAAAATATGTAAATAT [CACACA_site6963] | 11 |
| TTTGTTATATTTAATACACACATATTATAAACCCAT [CACACA_site3716] | 9.87 |
| ATAAAGCCATACAATACACACATTTTACATGGCTGT [CACACA_site5756] | 9.82 |
| TAAAATTAGGAAATTGCACACAAAAAAAAACATATT [CACACA_site9349] | 10.3 |
| AAAAAAAAAAGACACACACACAAATACAAATGGTAA [CACACA_site6906] | 10.5 |
| ACCCAATTTTTTAGTACACACATATAAATATATAAA [CACACA_site4944] | 9.7 |
| TAAAACATGTTTTTATATATTATTATTATATTTATA [XGTACX_negctrl_site8] | 9.62 |
| AACACATACAGACACACACACAAAAAAAAAAAAAAA [CACACA_site6322] | 10.9 |
| CACCTGCACGATTGCACACAAATATGTTTTGAAGAT [CACACA_site2103] | 9.88 |
